Measurements as given in the BET-seq Pho4 binding data (Le et al. 2018).
This is one part of the list. These are noisy estimates, calculated here from bound and input reads.

Molecular target: T1, Pho4 (S. cerevisiae) (UniProt P07270)
T1 sequence: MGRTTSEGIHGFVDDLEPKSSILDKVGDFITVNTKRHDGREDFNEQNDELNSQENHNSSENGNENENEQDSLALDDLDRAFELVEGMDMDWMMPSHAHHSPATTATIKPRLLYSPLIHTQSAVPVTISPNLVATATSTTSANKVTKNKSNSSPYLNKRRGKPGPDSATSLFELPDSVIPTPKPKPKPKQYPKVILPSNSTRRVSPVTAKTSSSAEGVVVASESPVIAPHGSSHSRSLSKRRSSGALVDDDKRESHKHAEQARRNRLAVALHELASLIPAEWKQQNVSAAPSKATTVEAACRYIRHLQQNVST
Test: relative binding free energy (BET-seq); higher = weaker binding
Conditions: reference: library average

Sequence | relative binding free energy [kcal/mol]
CTTGCCACGTGGAGGG | -0.12
TATATCACGTGGAGTT | 0.1
TCTGACACGTGGGTTG | -0.1
TGCTGCACGTGGTGGC | -0.09
TATATCACGTGAGATG | 0.41
TTAGACACGTGGTTCT | 0.07
CTGGACACGTGTTAGT | 0.02
AAACGCACGTGGTAGT | -0.12
TTTTACACGTGTATGA | 0
GGTGGCACGTGAGCTG | 0.08
TGTTGCACGTGTTCGA | -0.16
CAGTTCACGTGAAGGT | 0.32
ATGGTCACGTGCAAGA | 0.1
TTCTCCACGTGGGTGT | -0.13
ATCTGCACGTGGAGGA | 0.1
CTATGCACGTGGGGGA | -0.26
TGACGCACGTGTTATG | -0.1
TGCTTCACGTGGTAGA | 0.36
TATGACACGTGTGTGC | 0.08
AGGTTCACGTGAAAGG | 0.27
GGTTGCACGTGTAGTA | 0.12
GATAGCACGTGGTAAG | -0.08
CCATTCACGTGTGGGT | 0.24

Sequence | relative binding free energy [kcal/mol]
CGGTGCACGTGCTAGG | -0.07
GGCGTCACGTGGGTGA | -0.04
GGCACCACGTGGGGTG | -0.24
TTGGACACGTGCTTTT | 0.04
AATATCACGTGATTTT | 0.26
GTCTGCACGTGGGTGG | -0.1
ATACTCACGTGTTATT | 0.22
GGGGGCACGTGAGTCA | 0
AGGGTCACGTGGTGTG | 0.03
TTTTTCACGTGTCGCA | 0.3
AATTCCACGTGGGTGG | -0.06
TGGATCACGTGAGCTG | 0.33
AGTTCCACGTGCGGGT | -0.01
AGAATCACGTGGGGAA | 0.02
CGTATCACGTGGTAGA | 0.15
TTGTACACGTGCGATT | 0.06
GGAAGCACGTGCGAGG | -0.16
AATATCACGTGAAGTT | 0.38
TTCTTCACGTGGGTAT | 0.16
GGATGCACGTGGTTGA | -0.1
TTAGTCACGTGGCGGC | -0.1
CGTTGCACGTGGTTCG | -0.03
GAGGCCACGTGATGGT | 0.13

Sequence | relative binding free energy [kcal/mol]
AGGCACACGTGGAATG | 0.16
GTTCGCACGTGGATAG | -0.01
ATTTACACGTGGTTCC | 0.31
AGCGGCACGTGGTGTA | -0.26
TGTGGCACGTGTACGT | -0.09
TATGTCACGTGACCTT | 0.31
GTGTGCACGTGAAGGG | 0.3
ATTTGCACGTGTTGCC | 0.11
CGGGACACGTGGAATG | 0.06
GTGTCCACGTGGTGGT | 0.06
GGTATCACGTGAGGGG | 0.37
ATGGTCACGTGACGGA | 0.13
TATGGCACGTGAATGA | 0.14
ATGCGCACGTGTGTAA | -0.15
TATTTCACGTGAGGTA | 0.37
GGATACACGTGATGTT | 0.12
TGCGTCACGTGATTGG | 0.31
AAAGACACGTGTGGGC | 0.01
GCATGCACGTGTTGTT | 0
GGTTACACGTGTGCAT | 0.09
ATGTGCACGTGACGCG | 0.18
GCGTGCACGTGGCGAG | -0.01
TAGAGCACGTGGAGGC | -0.26

Sequence | relative binding free energy [kcal/mol]
TAAGTCACGTGTTAGG | 0
TGGTTCACGTGGTGTC | 0.22
CGTGGCACGTGTTGGC | -0.02
TGGCTCACGTGCGCGG | 0
AATGACACGTGGTTAA | -0.01
TAATGCACGTGGTTGG | -0.03
CAGTTCACGTGGTTTT | 0.29
TTGATCACGTGTGGTT | 0.2
TGGGTCACGTGTTCAA | 0.19
TATAGCACGTGTATTG | -0.12
CGTAACACGTGGTGGT | 0.08
AGGAGCACGTGAGTCG | 0.21
GGTAACACGTGAGGAG | 0.19
GTAATCACGTGGGGGT | 0
GGGTGCACGTGGATCA | -0.04
GCGGTCACGTGGAGCG | 0.16
GAGCGCACGTGGTTGC | 0.05
GCGGGCACGTGTTGAA | -0.04
GATTTCACGTGCAATT | 0.5
GATTACACGTGTAATG | 0.3
CTGAGCACGTGCTGGG | -0.21
AGTGTCACGTGGTCGT | 0.02
AGGCACACGTGTGTAG | 0.01

Sequence | relative binding free energy [kcal/mol]
TGGAGCACGTGTCCGG | -0.18
TGAGGCACGTGGAGAA | -0.09
CGGGGCACGTGATGCG | -0.17
AGTGGCACGTGTTACG | -0.12
GAACGCACGTGCGGGG | -0.14
GGGTTCACGTGTATAC | 0.25
CTTCGCACGTGGGGTA | -0.27
GGTTACACGTGTTTAG | 0.14
ACGAGCACGTGGGGTG | -0.34
TTTTACACGTGGTTAT | 0.02
GAAATCACGTGTGGCG | 0.22
ATCGGCACGTGGTTAA | -0.11
GGGTACACGTGGAGCT | 0.1
CAGTTCACGTGAGGCT | 0.38
CGTGTCACGTGATTGA | 0.11
GTTGCCACGTGCTTGG | -0.09
TCAAGCACGTGGGGGG | -0.19
AAGTGCACGTGGACTG | 0
GCGCGCACGTGTGGGC | -0.02
CGGTTCACGTGGCCGG | 0.18
GGTGACACGTGTTCTA | 0.07
TGTGGCACGTGTAGAA | 0.14
TTGAGCACGTGGGGGG | -0.19
